Assay results as given in PubChem BioAssay AID686978 (National Center for Advancing Translational Sciences (NCATS), 2013).
Among all 420,000 compounds or so, about 64,000 (15%) were called active. This list was built around the results that the source calls inconclusive (neither active nor inactive); the mix of calls is not that of the screen. Calls come from the whole dose curve; as a rule, active = well fitted inhibition curve with a large enough effect; inconclusive = small, poorly fitted or top-dose-only effect; inactive = flat fitted curve, though single readings scatter. Potencies of inconclusive entries are left out as doubtful fits.

assay: qHTS for Inhibitors of human tyrosyl-DNA phosphodiesterase 1 (TDP1): qHTS in cells in absence of CPT; conditions: DT40 Tdp1-/- hTDP1 cells, no CPT, ATP luminescence, 48 h; series mostly up to 46.2 µM; note: nearly all actives have a fitted effect of over 55% in size
Method in brief: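 Cells were dispensed at 400 per well, compounds added by pin tool, plates incubated ≥48 hr at 37 °C, then CellTiter-Glo added for 30 min at room temperature before luminescence reading. Line: DT40 Tdp1-/- complemented with hTDP1; camptothecin omitted.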
Potency is the fitted concentration of half-maximal effect; tags give direction and shape of the fitted curve.

SMILES | Potency
COc1ccc(Cc2c(-c3cccc(Br)c3)nc3c(C)cc(Br)cn23)c(C)c1 | inconclusive [inhibitor, single point]
O=C(Nc1cccnc1)c1cc(S(=O)(=O)N2CCCCC2)c(Cl)cc1Cl | inactive
CC(C)c1ccccc1OCC(=O)NC1CCCc2ccccc21 (centres undefined) | inconclusive [inhibitor, single point]
Cc1cc(C)c(NC(=O)CSc2nc(=O)n3cc(C)ccc3n2)c(C)c1 | inconclusive [inhibitor, full curve, poor fit]
Clc1ccc(-c2cccc3nccn23)c(Cl)c1 | inactive
Cc1ccc(S(=O)(=O)N(C)C)cc1NC(=O)C(C)OC(=O)C1CCCCC1 (centres undefined) | inactive
Cn1cc([C@@H]2C[C@H]3CN(Cc4cccc(Cl)c4)C(=O)[C@]34CCCN24)c2ccccc21 | inconclusive [inhibitor, single point]
Cc1ccc(CNC(=O)C23CN(Cc4ccccc4)CC2C(c2cccc([N+](=O)[O-])c2)=NO3)cc1 (centres undefined) | active: 20.6 µM
Nc1c(C(=O)NC2CC2)sc2nc3c(c(-c4ccco4)c12)CC/C3=C/c1ccco1 | active: 16.4 µM
CCOc1ccc(CCNC(=O)COC(=O)c2ccc(Br)o2)cc1OCC | inactive
O=C1NC[C@@H](Cc2cccc3ccccc23)N(CC2CCCCC2)C1=O | inconclusive [inhibitor, single point]
N#Cc1c(N)nc(SCC(=O)C23CC4CC(CC(C4)C2)C3)c(C#N)c1-c1ccc(Cl)cc1 | inconclusive [inhibitor, partial curve, poor fit]
N#C/C(=C\c1c(N2CCC(C(N)=O)CC2)nc2ccccn2c1=O)C(=O)NC1CCCCC1 | inconclusive [inhibitor, single point]
O=C(Nc1ccccc1C1CC1)c1cccs1 | inactive
CCCCOCCCNC(=O)Cc1ccccc1OC | inconclusive [inhibitor, partial curve]
Cc1cccc(-n2ncc3c2CCCC3NC(=O)CCc2cccnc2)c1C (centres undefined) | inconclusive [inhibitor, single point]
CCc1ccccc1NC(=O)CSc1ncc2c(n1)-c1ccccc1N(Cc1ccc(C)cc1)S2(=O)=O | inactive
CN(C(=O)c1ccccc1Br)C1CCS(=O)(=O)C1 (centres undefined) | inactive
O=[N+]([O-])c1ccc(COc2ccc(-c3[nH]ncc3-c3ccccc3)c(O)c2)cc1 | inconclusive [inhibitor, single point]
CCCCC(=O)Nc1ncc([N+](=O)[O-])s1 | inactive
O=C1C=C(N(CCO)Cc2ccccc2)c2ccccc2C1=O | active: 20.6 µM
O=S(=O)(Nc1ccc(N2CCOCC2)cc1)c1ccc(Cl)s1 | inconclusive [inhibitor, single point]
CC(=O)N1c2ccc(S(=O)(=O)N3CCC(C(=O)NCc4ccc(Cl)cc4)CC3)cc2CC1C (centres undefined) | inconclusive [inhibitor, single point]
COc1cc(CN2CCN(Cc3ccc4cc(F)ccc4n3)CC2CCO)cc(OC)c1 (centres undefined) | inactive
O=C(Nc1ccccc1)c1nc[nH]c1C(=O)N1CCN(c2ccccc2)CC1 | inconclusive [inhibitor, single point]

SMILES | Potency
CCC[C@H]1CN(c2ccccc2)C(=O)[C@@H]1CC(=O)Nc1ccccc1 | inconclusive [inhibitor, single point]
COc1ccc2c(c1)CCc1c(C(=O)NCc3cccnc3)noc1-2 | inconclusive [inhibitor, partial curve]
COc1ccc(CN(C)CC(=O)Nc2sc3c(c2C#N)CCC3)c(OC)c1 | inconclusive [inhibitor, single point]
CCOC(=O)C1=C(C)C2C3C(=O)N(c4cc(C)ccc4C)C(=O)C3C1(C)C1C(=O)N(c3cc(C)ccc3C)C(=O)C21 (centres undefined) | inconclusive [inhibitor, partial curve, poor fit]
COc1ccc(CCN=C(N)NS(=O)(=O)c2ccc(F)cc2)cc1 | inconclusive [inhibitor, partial curve]
CCOC(=O)CSc1nc(N)c(C#N)c(CC(C)C)c1C#N | inactive
CSc1nnc(-c2cccc(NC(=S)NN)c2)o1 | inconclusive [inhibitor, single point]
Cc1ccc(/C=C/C(=O)Nc2ccc(S(=O)(=O)Nc3onc(C)c3C)cc2)cc1 | inactive
COc1ccc(C(=O)NC(=S)NNC(=O)CNC(=O)C2CCCCC2)cc1 | inactive
CN(CCC#N)c1ccc(/C=C(\C#N)c2ccccn2)cc1 | inconclusive [inhibitor, single point]
CC(C)CCNC(=O)CCn1nc(-c2ccc(Cl)cc2)ccc1=O | inactive
CCc1ccc(-c2cc(C(F)(F)F)n3nc(C(=O)Nc4c(C)nn(Cc5ccccc5C)c4C)cc3n2)s1 | active: 16.4 µM
O=C(Nc1ccc(Cl)c(Cl)c1)Nc1ccc(Br)cc1F | active: 11.6 µM
O=C(CSc1cccc[n+]1[O-])C12CC3CC(CC(C3)C1)C2 | inconclusive [inhibitor, single point]
CC(=O)Nc1ccc(S(=O)(=O)Nc2cccc(S(=O)(=O)N(C)c3ccccc3)c2)cc1 | inconclusive [inhibitor, single point]
CCOC(=O)c1ccccc1NS(=O)(=O)c1c(-c2ccc(C)cc2)csc1C(=O)OC | active: 5.8 µM
COc1cccc(CNC(=O)CCc2c(C)c3cc4c(C)c(C)oc4cc3oc2=O)c1 | inconclusive [inhibitor, single point]
COc1ccc(OC)c(C(c2nnnn2C2CCCC2)N2CCN(c3ccccc3F)CC2)c1 (centres undefined) | inconclusive [inhibitor, single point]
CC1CCN(CC(=O)NC2CCCCC2)CC1 | inactive
O=C(CSc1nc2ccccc2o1)Nc1nc2c(s1)CCCC2 | active: 14.6 µM
O=S(=O)(NC1=NCCCCC1)c1ccc2ccccc2c1 | inactive
COc1cc(CNC(=O)c2nc(Cn3nc(C)c(Br)c3C)no2)cc(OC)c1 | inconclusive [inhibitor, full curve]
Cc1ccc(S(=O)(=O)N2CCN(C(=O)COC(=O)Cc3ccc(Cl)cc3)CC2)c(C)c1 | inconclusive [inhibitor, full curve, poor fit]
CCN(CC)S(=O)(=O)c1ccc(N2CCCCC2)c(NC(=O)C2CCN(C(=O)c3ccc(F)cc3)CC2)c1 | active: 23.1 µM
Brc1ccc2nc(N3CCCC3)sc2c1 | inconclusive [inhibitor, single point]

SMILES | Potency
O=C(NCCc1c[nH]c2ccccc12)C(=O)NCC1OCCN1S(=O)(=O)c1ccc(F)cc1 (centres undefined) | inconclusive [inhibitor, single point]
CCCNC(=O)c1ccccc1NC(=O)Nc1ccccc1C | inconclusive [inhibitor, single point]
CC(=O)Nc1ccc(NC(=O)CSc2nnc3ccc(-c4cccnc4)nn23)cc1 | inactive
Cc1c(Cl)c([N+](=O)[O-])nn1CC(=O)NC1CCCCC1 | inactive
C/C(CC(=O)NC1CCCC1)=N\NC(=O)C1CCCCC1 | inactive
COc1cc(OC)c(C(=O)O/N=C(\N)c2ccc(C)cc2)cc1OC | inconclusive [inhibitor, partial curve]
Cc1cc(NS(=O)(=O)c2ccc(NC(=O)c3ccoc3C)cc2)nc(C)n1 | inactive
CC(C)Oc1ccc(CNC(=O)c2ccc(NC(=O)c3nsc4ccccc34)cc2)cc1 | active: 18.4 µM
O=C(OCc1ccccc1Cl)c1ccc(-c2nnn(Cc3ccccc3)n2)cc1 | inconclusive [inhibitor, single point]
Cc1ccc(C2(C)NC(=O)N(CC(=O)N(C)CC(=O)Nc3cccc4ccccc34)C2=O)cc1 (centres undefined) | inactive
Cc1ccc(Cn2cc(CN3CC(N4CCN(CCO)CC4)CS3(=O)=O)nn2)cc1 (centres undefined) | inactive
COc1ccc(C(C(=O)NC(C)(C)C)n2c(-c3ccc(-c4ccccc4)cc3)nc3ccccc32)cc1 (centres undefined) | active: 13 µM
Cc1cc(NC(=O)Nc2ccc(F)cc2F)n(C)n1 | inactive
Cn1cc(CCC(=O)NCCCc2ccccc2)c2ccccc21 | inconclusive [inhibitor, single point]
Cc1cc(C(=O)Nc2nc(C)c(C(=O)N(C)C)s2)ccc1[N+](=O)[O-] | inactive
S=C(NCc1ccncc1)Nc1ccccc1 | inconclusive [inhibitor, single point]
CCOC(=O)c1c(NC(=O)/C=C/C(=O)O)sc(C)c1-c1ccc(F)cc1 | inconclusive [inhibitor, single point]
COc1ccc(/C=C(/C#N)c2nc(-c3ccc(-c4ccccc4)cc3)cs2)cc1 | inconclusive [inhibitor, single point]
C=CCNC(=O)COC(=O)CNC(=O)c1cc(Cl)cc([N+](=O)[O-])c1 | inactive
CCN(CCn1cccn1)C(=O)c1ccc2nc(Cc3ccc(OC)cc3)oc2c1 | inconclusive [inhibitor, single point]
CCOc1c(Cl)cc(CNCC(C)C)cc1Cl | inconclusive [inhibitor, partial curve]
COc1cc2c(c(Br)c1N)-c1cc(Br)c(N)cc1C2=O | inactive
c1cncc(-c2cncnc2NC2CCNCC2)c1 | inactive
Cc1nnc(-c2ccc(Cl)cc2)[nH]c1=O | inconclusive [inhibitor, single point]
